# In the supplement of paper PMC11417369:
# ± gives the standard deviation of the averaged measurements. The list shows a part of the results.
# Test system: PfAP2-EXP AP2 domain (GST-tagged)
# Assay: gcPBM binding intensity (ln(normalized median fluorescence intensity)); higher = stronger DNA binding
# Outline: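 The binding buffer was 1× PBS containing 1% milk, 0.2 mg/ml BSA, 0.5% salmon testes DNA and 0.03% Triton X-100. In it, GST-tagged P. falciparum DNA-binding domains expressed in E. coli were applied for 1 h to an Agilent 4 × 180k array of primer-extended double-stranded 36-bp intergenic genomic probes plus negative controls. Binding intensity, read with Alexa488 anti-GST antibody and a 488 nm scan, is the highest Masliner-normalised natural-log median intensity across replicate spots of either probe orientation.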
row,Sequence,gcPBM binding intensity (ln)
1,ATTCTTTTTTTTTGGAAATGTATTTTTATGTTTTGT [TGCATGCA_negctrl_site426],8.59 ± 0.57
2,ATTTTAGATGAAAAAGCACACAACATATATATATAT [CACACA_site2295],10.1 ± 0.22
3,GTATAATATGAACACACACACACACGCAAAAAAAAA [CACACA_site7036],8.68 ± 0.5
4,ACGTTGAAGAAATACACATGCATATTCTATATATAT [TGCATGCA_site76],9.04 ± 0.071
5,TATATTTTTTAAAAAGCATGCAAAAAATAATGATCA [TGCATGCA_site48],9.34 ± 0.39
6,TAATATATATAAACATGTACAAATCAAAAACAAAAG [XGTACX_site4076],9.1 ± 0.47
7,CTCTTATGCTAGGAAGTGCAATAGTATGGGTACCAC,8.79 ± 0.12
8,TCATTTTATTTTTTCACACACACATATATATATATA [CACACA_site3333],10.1 ± 0.33
9,TTGCCCATTTCATTAACACACAAATGTTTATATTCT [CACACA_site4569],8.87 ± 0.38
10,AATACCCATTTTAGTACACACTTAAAAAATTATTTT [CACACA_site5611],8.61 ± 0.18
11,TTAACTCAAGAGTGTACACATATATATATATATATA [CACACA_site4334],10.2 ± 0.47
12,AAGTATTACAACCACACACACACCTATATATTATAT [CACACA_site4158],8.68 ± 0.52
13,CCAAAGAAATATAATACACACAAGAATATATTGGAT [CACACA_site6018],8.8 ± 0.53
14,AATGAAAAATGTATCGTTAAAGGGTATCTTAAGGAT [XGTACX_negctrl_site222],8.52 ± 0.36
15,ACTTGTTTTCAATGTAAAATACAATTTTCATTTATT [CACACA_negctrl_site435],8.27 ± 0.32
16,TTTTAAACAAAAAATTGTACAATTAGTGTATAATCC [XGTACX_site778],8.62 ± 0.12
17,AAAAAAAAAAGACACACACACAAATACAAATACATA [CACACA_site6334],8.62 ± 0.64
18,AAAGGAAATTAAAATTGATTACATATATAAAAAAAC [XGTACX_negctrl_site196],8.84 ± 0.47
19,AATTTAATATAATGCACACATAAAAAAAAAAAAAAA [CACACA_site123],8.635 ± 0.064

row,Sequence,gcPBM binding intensity (ln)
1,CTTTATTATAAGATTACACACATGTGTTATAATTTA [CACACA_site3169],8.4 ± 0.37
2,TTGACCTTAAGAAGGTTGCACTAATCATTCAAAGTT,8.13 ± 0.3
3,CCATTTATTATTTGGGGTACATTTAATTAATATTTT [XGTACX_site5940],9.22 ± 0.47
4,AATATTTTAAGGCACACACACAAAAAAAAAAAAAAA [CACACA_site2890],8.66 ± 0.28
5,ATTTAAGGGGTGTATGCACACGACTATTCCGTATGA [CACACA_site4738],8.53 ± 0.37
6,TAATTTAGTATCTTTACATGCGGGCATTATGTCATA [TGCATGCA_site167],8.57 ± 0.4
7,CCAAAGGGGGTATACTGTACATATAGTGGTTATATA [XGTACX_site1515],8.95 ± 0.014
8,TTTATTAATAGACACACACACACACGCAAAATAAAA [CACACA_site6255],9.01 ± 0.39
9,ATAGGCACTTTTTGCACACGTATGAATAACAAAATA [CACACA_site5069],8.71 ± 0.18
10,TGAAAATTTTAATGAGGAAATAAAATAAATATAATA [GTGCAC_negctrl_site159],8.45 ± 0.36
11,TTATAGTATTTATAATGTACAAATATATTTTATTTT [XGTACX_site5015],8.28 ± 0.3
12,TTGAATATTTAAAAACGTACATAAAATTATTTGATT [XGTACX_site5422],8.37 ± 0.38
13,ATATATATATTTATAGTGCATTTATATTAAAATATC [GTGCAC_site9818],9.21 ± 0.028
14,TCAAATAGAAAATAAAGTACTTAATTTTTAGGAACA [XGTACX_site1446],8.59 ± 0.41
15,ATATATATTTATATATGTACATATTAATATATATAT [XGTACX_site1144],8.92 ± 0.028
16,ATATTTATATTTTTTTGTACATATATAATTTTATAA [XGTACX_site4151],8.56 ± 0.35
17,GAGCTTTGGATGAAAGCATGCGATGAATGGATAAAA [TGCATGCA_site786],9.14 ± 0.67
18,AAATTAAAATATATATGTACATATATATATATATAT [XGTACX_site7844],10 ± 0.42
19,CTGTAAAATGTGATGGTGCATATTAATTTAGTTGTA,8.78 ± 0.028

row,Sequence,gcPBM binding intensity (ln)
1,ATTTATTTCAATAAACTTCTTTTCTTTAACAATTAC [CACACA_negctrl_site1222],8.46 ± 0.67
2,TAAATAGGAAAACCTATACACACTTTAAAAAAAATA [CACACA_site1621],8.17 ± 0.4
3,TAAATTAAAAAAAAAAACAAAAAAAAAGCAACAAAA [CACACA_negctrl_site1318],8.46 ± 0.53
4,ATAAAAATAAATAAATGTACATATATATATATATAT [XGTACX_site1277],10.1 ± 0.4
5,AACACAAATAAGTATTTGGATTATATTACATTTATA [CACACA_negctrl_site465],8.09 ± 0.36
6,AAATATAAAAATAGCACACATATATACATATATATA [CACACA_site56],8.43 ± 0.13
7,TGTCCAATTTTTTATCGTACATAATATATAAATAAA [XGTACX_site1705],8.64 ± 0.29
8,TATTTTTCCCTATGCACACACACCGTATATATAATA [CACACA_site4758],9.13 ± 0.38
9,AGTATTTCCATATGTACATGCAAAAGGAAAGATATA [TGCATGCA_site850],9.03 ± 0.23
10,TATAAAAATGTGTATGTACACACTTTATTTTTAATA [CACACA_site2532],8.22 ± 0.23
11,AGAAACGTAAGTTATACACACATGTCAAAAGAAAAA [CACACA_site312],8.79 ± 0.52
12,CAATGTTAATATAATACACACAATATGTATTTGTCT [CACACA_site1162],8.35 ± 0.32
13,ATCCATCTTTTATATAGTACTTTATAATATATATAT [XGTACX_site8064],9.235 ± 0.078
14,TTGTTAATATATATATGTACTTATTTATTTATTTAT [XGTACX_site2274],8.51 ± 0.35
15,TTTGAATTTTTTAACACACACATGTCTGGATATATA [CACACA_site1645],8.65 ± 0.45
16,TTTTCCTTAACACACGTTTATATAAAAAATTAAAAT [XGTACX_negctrl_site115],8.42 ± 0.57
17,GAAAAAAAAAAAAAAAGTACATGTCATAAATTGTAT [XGTACX_site1461],8.6 ± 0.47
18,TATATATATATATAATGTACATAATAATAATACATC [XGTACX_site5587],9.84 ± 0.26
19,TAGAAGCATTGACACACACACATACATACACATACA [CACACA_site6802],8.72 ± 0.45
